The list shows a part of the results.

The experiment deals with T1, MBP-FoxP1dN (Mus musculus, UniProt P58462 326-579).
T1 sequence: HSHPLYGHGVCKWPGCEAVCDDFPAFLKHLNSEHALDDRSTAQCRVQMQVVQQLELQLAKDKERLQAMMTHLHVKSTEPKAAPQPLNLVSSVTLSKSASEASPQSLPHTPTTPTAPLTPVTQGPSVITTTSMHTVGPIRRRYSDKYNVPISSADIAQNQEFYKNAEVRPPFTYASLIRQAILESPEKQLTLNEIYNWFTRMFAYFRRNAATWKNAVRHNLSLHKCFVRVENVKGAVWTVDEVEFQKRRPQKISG
The experiment can be described thus: PD-seq (MBP pull-down with sequencing); 20 mM Tris-HCl pH 7.5, 100 mM NaCl, 1.5 mM MgCl2, 0.4 uM protein, 0.1 uM dsDNA library, 30 min, room temperature, amylose pull-down; high values mean tight binding. The note with it: protein: recombinant; tags: His6-MBP; chain copies: 2; dsDNA, one strand shown. The procedure, abridged:
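The N-terminus-lacking fragment of mouse FoxP3 or FoxP1 carried a His6-MBP tag and was expressed in E. coli. At 0.4 µM it was incubated with 0.1 µM Klenow-filled degenerate double-stranded DNA library for 30 min at room temperature in Tris pH 7.5 buffer with NaCl and MgCl2, and complexes were caught on amylose resin, washed three times, released with proteinase K, PCR-barcoded and Illumina-sequenced. Binding is reads-per-million enrichment of pull-down over input with replicates pooled.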
For the sequence “GATGATTGTTCTCCCAGCTGATGAATTATACCAGTCGAGTAAACAAATTTTCCTAATCTTTCTGTTCAAGCGCCATCTAC”, the binding signal was 0.958 RPM ratio (pull-down/input).
Then “GATGATTGTTCTCCCAGCTGATGAATTCGGGATGTCGAGTAAACAAATTTTCCTAATCTTTCTGTTCAAGCGCCATCTAC”, with 0.867 RPM ratio (pull-down/input); and “GATGATTGTTCTCCCAGCTGATGAATTCCTAATGTCGAGTAAACAAATTTTCCTAATCTTTCTGTTCAAGCGCCATCTAC”, with 0.994 RPM ratio (pull-down/input).
Then “GATGATTGTTCTCCCAGCTGATGAATTCTTTGCATCGAGTAAACAAATTTTCCTAATCTTTCTGTTCAAGCGCCATCTAC”, with 1.26 RPM ratio (pull-down/input); and “GATGATTGTTCTCCCAGCTGATGAATTCAACACGTCGAGTAAACAAATTTTCCTAATCTTTCTGTTCAAGCGCCATCTAC”, with 1.05 RPM ratio (pull-down/input).
Then “GATGATTGTTCTCCCAGCTGATGAATTCACACTGTCGAGTAAACAAATTTTCCTAATCTTTCTGTTCAAGCGCCATCTAC”, with 0.93 RPM ratio (pull-down/input); and “GATGATTGTTCTCCCAGCTGATGAATTTCTACACTCGAGTAAACAAATTTTCCTAATCTTTCTGTTCAAGCGCCATCTAC”, with 0.899 RPM ratio (pull-down/input); and “GATGATTGTTCTCCCAGCTGATGAATTTTCGAAATCGAGTAAACAAATTTTCCTAATCTTTCTGTTCAAGCGCCATCTAC”, with 0.936 RPM ratio (pull-down/input).
Turning to “GATGATTGTTCTCCCAGCTGATGAATTTCGCATGTCGAGTAAACAAATTTTCCTAATCTTTCTGTTCAAGCGCCATCTAC”, the binding signal is 0.944 RPM ratio (pull-down/input).
The same measure for “GATGATTGTTCTCCCAGCTGATGAATTCTGCACATCGAGTAAACAAATTTTCCTAATCTTTCTGTTCAAGCGCCATCTAC”: 0.911 RPM ratio (pull-down/input); for “GATGATTGTTCTCCCAGCTGATGAATTAAGCCTTTCGAGTAAACAAATTTTCCTAATCTTTCTGTTCAAGCGCCATCTAC”: 0.884 RPM ratio (pull-down/input); for “GATGATTGTTCTCCCAGCTGATGAATTCAATGCGTCGAGTAAACAAATTTTCCTAATCTTTCTGTTCAAGCGCCATCTAC”: 1.05 RPM ratio (pull-down/input).
The same measure for “GATGATTGTTCTCCCAGCTGATGAATTGACTGATTCGAGTAAACAAATTTTCCTAATCTTTCTGTTCAAGCGCCATCTAC”: 1.14 RPM ratio (pull-down/input); for “GATGATTGTTCTCCCAGCTGATGAATTGCGTTCTTCGAGTAAACAAATTTTCCTAATCTTTCTGTTCAAGCGCCATCTAC”: 1.15 RPM ratio (pull-down/input); for “GATGATTGTTCTCCCAGCTGATGAATTGAGGCCATCGAGTAAACAAATTTTCCTAATCTTTCTGTTCAAGCGCCATCTAC”: 0.932 RPM ratio (pull-down/input).
Then “GATGATTGTTCTCCCAGCTGATGAATTTTTGAGCTCGAGTAAACAAATTTTCCTAATCTTTCTGTTCAAGCGCCATCTAC”, with 0.862 RPM ratio (pull-down/input).
Consider “GATGATTGTTCTCCCAGCTGATGAATTGCCTAAGTCGAGTAAACAAATTTTCCTAATCTTTCTGTTCAAGCGCCATCTAC”, for which the binding signal is 0.889 RPM ratio (pull-down/input).
Then “GATGATTGTTCTCCCAGCTGATGAATTACGGTGATCGAGTAAACAAATTTTCCTAATCTTTCTGTTCAAGCGCCATCTAC”, with 0.986 RPM ratio (pull-down/input).
Then “GATGATTGTTCTCCCAGCTGATGAATTCAGCGACTCGAGTAAACAAATTTTCCTAATCTTTCTGTTCAAGCGCCATCTAC”, with 0.675 RPM ratio (pull-down/input).
With “GATGATTGTTCTCCCAGCTGATGAATTATGTCGGTCGAGTAAACAAATTTTCCTAATCTTTCTGTTCAAGCGCCATCTAC”, the binding signal is 0.893 RPM ratio (pull-down/input).
The same measure for “GATGATTGTTCTCCCAGCTGATGAATTCGTCAGCTCGAGTAAACAAATTTTCCTAATCTTTCTGTTCAAGCGCCATCTAC”: 0.757 RPM ratio (pull-down/input); for “GATGATTGTTCTCCCAGCTGATGAATTGCCGTCCTCGAGTAAACAAATTTTCCTAATCTTTCTGTTCAAGCGCCATCTAC”: 0.849 RPM ratio (pull-down/input); for “GATGATTGTTCTCCCAGCTGATGAATTTTCCATTTCGAGTAAACAAATTTTCCTAATCTTTCTGTTCAAGCGCCATCTAC”: 0.926 RPM ratio (pull-down/input).
Then “GATGATTGTTCTCCCAGCTGATGAATTGTAAAAATCGAGTAAACAAATTTTCCTAATCTTTCTGTTCAAGCGCCATCTAC”, with 1.21 RPM ratio (pull-down/input); and “GATGATTGTTCTCCCAGCTGATGAATTGGTATCTTCGAGTAAACAAATTTTCCTAATCTTTCTGTTCAAGCGCCATCTAC”, with 1.06 RPM ratio (pull-down/input); and “GATGATTGTTCTCCCAGCTGATGAATTCCGGAGTTCGAGTAAACAAATTTTCCTAATCTTTCTGTTCAAGCGCCATCTAC”, with 0.805 RPM ratio (pull-down/input).
For “GATGATTGTTCTCCCAGCTGATGAATTTATACGCTCGAGTAAACAAATTTTCCTAATCTTTCTGTTCAAGCGCCATCTAC”, the binding signal was 1.08 RPM ratio (pull-down/input).
Then “GATGATTGTTCTCCCAGCTGATGAATTTACAATGTCGAGTAAACAAATTTTCCTAATCTTTCTGTTCAAGCGCCATCTAC”, with 1.45 RPM ratio (pull-down/input); and “GATGATTGTTCTCCCAGCTGATGAATTCTAACGGTCGAGTAAACAAATTTTCCTAATCTTTCTGTTCAAGCGCCATCTAC”, with 0.843 RPM ratio (pull-down/input); and “GATGATTGTTCTCCCAGCTGATGAATTGTGGGACTCGAGTAAACAAATTTTCCTAATCTTTCTGTTCAAGCGCCATCTAC”, with 0.958 RPM ratio (pull-down/input).
With “GATGATTGTTCTCCCAGCTGATGAATTAGAACCTTCGAGTAAACAAATTTTCCTAATCTTTCTGTTCAAGCGCCATCTAC”, the binding signal was 0.891 RPM ratio (pull-down/input).
